One molecule from patent US20170307631A1, “METHODS, SYSTEMS AND PRODUCTS FOR PREDICTING RESPONSE OF TUMOR CELLS TO A THERAPEUTIC AGENT AND TREATING A PATIENT ACCORDING TO THE PREDICTED RESPONSE” (Merrimack Pharmaceuticals, Inc., priority 2008, published 2017) can be followed below.

The target of test [1] is ErbB3 (Homo sapiens, UniProt P21860). Description: On-rate and off-rate of H3 arm of H3×B1D2 by BIACore and KinExA. Type of test: binding. From the text:
(§1) Next, a computational representation of the mechanism by which H3×B1D2 inhibits HRG-dependent signaling of the ErbB pathway was developed. The computational representation of the inhibitor was constructed using mass-action reaction equations that describe the binding of inhibitor to ErbB2 and ErbB3 and subsequent inhibition of HRG-induced signaling. Parameters for the binding events were obtained by a combination of direct measurement (using techniques widely known in the art) and computational training of the model to match data for the inhibition of HRG-induced pErbB3 in cells by H3×B1D2. In particular, the on-rate and off-rate for binding of the H3 single chain arm of the bispecific antibody to ErbB3 and the on-rate and off-rate for the binding of the B1D2 single chain arm of the bispecific antibody to ErbB2 were experimentally determined by standard BIACore and KinExA technology. Reactions and parameters for the computational model of H3×B1D2 appear in Tables 16a and 16b.

Test [2] has as its target ErbB2 (Homo sapiens, UniProt P04626). Nature of the test: On-rate and off-rate of B1D2 arm of H3×B1D2 by BIACore and KinExA. Type of test: binding.
Text: as §1
Background: Surface plasmon resonance follows binding to a sensor surface in real time, without labels.

B1: H3 x B1D2 (protein)
chain: QVQLQESGGGLVKPGGSLRLSCAASGFTFSSYWMSWVRQAPGKGLEWVANINRDGSASYYVDSVKGRFTISRDDAKNSLYLQMNSLRAEDTAVYYCARDRGVGYFDLWGRGTLVTVSSASTGGGGSGGGGSGGGGSQSALTQPASVSGSPGQSITISCTGTSSDVGGYNFVSWYQQHPGKAPKLMIYDVSDRPSGVSDRFSGSKSGNTASLIISGLQADDEADYYCSSYGSSSTHVIFGGGTKVTVLGAAS[about 600 residues skipped]AAALQVQLVQSGAEVKKPGESLKISCKGSGYSFTSYWIAWVRQMPGKGLEYMGLIYPGDSDTKYSPSFQGQVTISVDKSVSTAYLQWSSLKPSDSAVYFCARHDVGYCTDRTCAKWPEWLGVWGQGTLVTVSSGGGGSSGGGSGGGGSQSVLTQPPSVSAAPGQKVTISCSGSSSNIGNNYVSWYQQLPGTAPKLLIYDHTNRPAGVPDRFSGSKSGTSASLAISGFRSEDEADYYCASWDYTLSGWVFGGGTKLTVLG
In the case of B1, the “h3xb1d2_kr2: reverse parameter, (H3 x B1D2) + E3 <-> (H3 x B1D2):E3” value in test [1] (off-rate from ErbB3) was 0.022 s⁻¹. In addition, the “h3xb1d2_kf2: forward parameter, (H3 x B1D2) + E3 <-> (H3 x B1D2):E3” value in test [1] (on-rate, binding to ErbB3) was 3.50E+05 (mol/L)−1sec−1. In test [2] (off-rate from ErbB2), the “h3xb1d2_kr1: reverse parameter, E2 + (H3 x B1D2) <-> E2:(H3 x B1D2)” value was 0.00015 s⁻¹. Further, the “h3xb1d2_kf1: forward parameter, E2 + (H3 x B1D2) <-> E2:(H3 x B1D2)” value in test [2] (on-rate, binding to ErbB2) was 3.13E+04 (mol/L)−1sec−1.
